Experimental data published in PubChem BioAssay AID1159614 (National Center for Advancing Translational Sciences (NCATS), 2016).
Among all 45,000 compounds or so, about 65 (0.1%) were called active. The call rests on the fitted dose curve; in most records, active means well fitted activation curve with a large enough effect; inconclusive means small, poorly fitted or top-dose-only effect; inactive means no such curve, though single readings can be large or run the other way. The list shows a part of the results.

target: Galactocerebrosidase (Homo sapiens) (UniProt P54803); experiment: A Novel Cell-Based Assay to Identify Small Molecules for B -Galactocerebrosidase; conditions: 145M-Twi-hGALC-G270D cells, HMU-beta-Gal fluorescence, 48 h; series mostly up to 57.5 µM; activation: at the top concentration; further: 0% is about no effect; nearly all actives have a fitted effect of over 65% in size
UniProt P54803, sequence (P54803 whole entry, looked up): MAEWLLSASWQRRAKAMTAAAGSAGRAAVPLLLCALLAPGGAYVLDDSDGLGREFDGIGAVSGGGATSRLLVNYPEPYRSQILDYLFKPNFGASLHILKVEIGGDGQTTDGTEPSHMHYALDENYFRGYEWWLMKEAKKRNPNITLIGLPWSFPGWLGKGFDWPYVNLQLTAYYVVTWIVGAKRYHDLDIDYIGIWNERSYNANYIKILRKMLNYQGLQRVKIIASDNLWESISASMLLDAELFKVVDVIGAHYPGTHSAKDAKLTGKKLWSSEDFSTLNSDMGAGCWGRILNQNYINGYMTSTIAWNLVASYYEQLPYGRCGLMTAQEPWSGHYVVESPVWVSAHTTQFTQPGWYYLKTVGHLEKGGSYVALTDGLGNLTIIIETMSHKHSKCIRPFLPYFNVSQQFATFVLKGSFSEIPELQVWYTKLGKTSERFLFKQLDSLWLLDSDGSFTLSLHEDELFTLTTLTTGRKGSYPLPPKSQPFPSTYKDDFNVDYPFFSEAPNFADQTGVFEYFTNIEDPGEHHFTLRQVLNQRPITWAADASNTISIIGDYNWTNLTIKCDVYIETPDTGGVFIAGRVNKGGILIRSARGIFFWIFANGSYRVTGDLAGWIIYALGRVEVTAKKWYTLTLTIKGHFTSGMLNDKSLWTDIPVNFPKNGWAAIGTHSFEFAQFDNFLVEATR
Outline: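 qHTS, 1536-well; 145M-Twi-hGALC-G270D cells (WT line also made) in DMEM/F12 + 10% FBS; compound incubation on live cells; HMU-β-gal 0.1 mM final, pH 5.2, NaTC; carbonate stop; fluorescence increase = enhanced residual activity.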

activation, inactive:
Cc1nc(-c2ccccc2)sc1-c1ccc(SCC(=O)Nc2ccccc2)nn1 -8.3%, Cc1oc(-c2cccc(Br)c2)nc1CN1CCC(C(=O)NCc2ccccc2)CC1 -6.48%, Cc1ccc(NC(=O)c2ccc(F)c(S(=O)(=O)NCCc3ccccc3)c2)cc1F -16%, COCCn1c(CCC(=O)Nc2ccc(OC)c(OC)c2)nc2cccnc21 -11.8%, O=C(NCc1ccccc1Cl)c1cc(-c2ccccc2)n[nH]1 -14.8%, O=C(Cn1c2ncccc2c(=O)n1-c1ccccc1)NCc1ccccc1 -20.1%, O=C(CS(=O)(=O)c1nc(-c2ccc(Cl)cc2)cn1-c1ccccc1)Nc1cccc(Cl)c1 -44.4%, Cc1cc(C)cc(NC(=O)CSc2nccn2C2CCCC2)c1 -5.2%, COc1cccc(NC(=O)c2csc3c2CCCCC3)c1 -8.5%, CCc1ccc(NC(=O)N2CCN(c3nnc(C)c4c(C)n(-c5ccc(Cl)cc5)nc34)CC2)cc1 -27.1%, COc1cccc(CNC(=O)Cc2c(C)c3cc4c(C)coc4cc3oc2=O)c1 -3.67%, COc1cccc(C2C(C(N)=O)=C(C)Nc3nc(CCCO)nn32)c1 (stereo not drawn) -5.05%, CCN1C(=O)c2ccccc2Sc2ccc(NC(=O)Cc3ccc(OC)c(OC)c3)cc21 -11.8%, COc1ccc2c(c1)c(=O)c(S(=O)(=O)c1ccc(F)cc1)cn2CC(=O)Nc1ccc(C)cc1C -4.24%, CCOc1cccc(CC(=O)NCc2ccc3c(c2)CCN3C(=O)c2cccc(C)c2)c1OCC -22.4%, COc1cc(NS(=O)(=O)c2ccc(NC(=O)COc3ccc(Cl)cc3Cl)cc2)nc(OC)n1 -11.5%, COc1ccc(CN(C(=O)Nc2cc(C)ccc2C)C2CCN(C(C)=O)CC2)cc1 -9.97%, Cc1ccc(CNCc2ccc3c(c2)n(C)c(=O)n3C)cc1 -13.9%, O=C(CCNS(=O)(=O)c1ccc(Br)s1)Nc1ccc(Br)cc1 -10.9%, c1ccc(Nc2c(-c3ccccc3)nc3ncccn23)cc1 -4.16%, CCC(CC)C(=O)N1CCc2cc(OC)c(OC)cc2C1COc1ccc2c(C)cc(=O)oc2c1 (stereo not drawn) -16.5%, O=C(c1cc(S(=O)(=O)N2CCCC2)c[nH]1)N1CCN(c2cccc(Cl)c2)CC1 3.46%, CCOc1ccc2nc(N(Cc3cccnc3)C(=O)c3ccco3)sc2c1 -10.5%, CCOc1ccccc1N(CC)C(=O)Cn1ncc2c1-c1ccccc1OC2 -33.1%, CCOc1ccc(NC(=O)CSc2nc(-c3ccccc3)c3cc(OCC)ccc3n2)cc1 -0.217%, COc1ccc(CNC(=O)c2cnc3sc4cc(OC)ccc4n3c2=O)cc1 -12.3%, O=C(NCc1ccccc1Cl)C(=O)NCC(c1ccc2c(c1)OCO2)N1CCOCC1 (stereo not drawn) -10.1%, COc1ccc(CNC(=O)CCS(=O)(=O)c2cc3c4c(c2)CCN4C(=O)CC3)cc1OC -11.3%
